Experimental data reported in the supplement of paper PMC8728848.
The other results are listed elsewhere or left out.

Experiments:
Assay in all cases: glycan array binding signal (z-score within array); higher = stronger binding
Conditions in all cases: glycan notation: IUPAC condensed, linker removed
[1] = biological target: Gal(b1-3)[Neu5Ac(a2-6)]GalNAc
Outline: (§1)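 The binding signal is a Z-score computed within each array and averaged over linkers. Arrays of the same protein sequence at different concentrations or buffers were also averaged together. Data originate from 3228 arrays in the Consortium for Functional Glycomics database, kept only where the protein sequence was available.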

[2] = biological target: Gal(b1-3)[Neu5Ac(a2-6)]GlcNAc(b1-6)Gal(b1-4)Glc
Outline: as §1

[3] = biological target: Gal(b1-3)[Neu5Ac(b2-6)]GalNAc
Outline: as §1

[4] = biological target: Gal(b1-4)GalNAc(a1-3)[Fuc(a1-2)]Gal(b1-4)GlcNAc
Outline: as §1

[5] = biological target: Gal(b1-4)GalNAc(b1-3)[Fuc(a1-2)]Gal(b1-4)GlcNAc
Outline: as §1

Gal(b1-4)Glc = biological target: Gal(b1-4)Glc
Outline: as §1

Gal(b1-4)Glc6S = biological target: Gal(b1-4)Glc6S
Outline: as §1

Gal(b1-4)GlcNAc = biological target: Gal(b1-4)GlcNAc
Outline: as §1

[6] = biological target: Gal(b1-4)GlcNAc(a1-6)Gal(b1-4)GlcNAc
Outline: as §1

[7] = biological target: Gal(b1-4)GlcNAc(b1-2)Man(a1-3)Man(b1-4)GlcNAc(b1-4)GlcNAc
Outline: as §1

[8] = biological target: Gal(b1-4)GlcNAc(b1-2)Man(a1-3)[Gal(b1-4)GlcNAc(b1-2)Man(a1-6)]Man(b1-4)GlcNAc(b1-4)GlcNAc
Outline: as §1

[9] = biological target: Gal(b1-4)GlcNAc(b1-2)Man(a1-3)[Gal(b1-4)GlcNAc(b1-2)Man(a1-6)]Man(b1-4)GlcNAc(b1-4)[Fuc(a1-6)]GlcNAc
Outline: as §1

[10] = biological target: Gal(b1-4)GlcNAc(b1-2)Man(a1-3)[GlcNAc(b1-2)Man(a1-6)]Man(b1-4)GlcNAc(b1-4)GlcNAc
Outline: as §1

[11] = biological target: Gal(b1-4)GlcNAc(b1-2)Man(a1-3)[Man(a1-6)]Man(b1-4)GlcNAc(b1-4)GlcNAc
Outline: as §1

[12] = biological target: Gal(b1-4)GlcNAc(b1-2)Man(a1-6)Man(b1-4)GlcNAc(b1-4)GlcNAc
Outline: as §1

[13] = biological target: Gal(b1-4)GlcNAc(b1-2)Man(a1-6)[GlcNAc(b1-2)Man(a1-3)]Man(b1-4)GlcNAc(b1-4)GlcNAc
Outline: as §1

[14] = biological target: Gal(b1-4)GlcNAc(b1-2)Man(a1-6)[Man(a1-3)]Man(b1-4)GlcNAc(b1-4)GlcNAc
Outline: as §1

[15] = biological target: Gal(b1-4)GlcNAc(b1-2)[Gal(b1-4)GlcNAc(b1-4)]Man(a1-3)[Gal(b1-4)GlcNAc(b1-2)Man(a1-6)]Man(b1-4)GlcNAc(b1-4)GlcNAc
Outline: as §1

[16] = biological target: Gal(b1-4)GlcNAc(b1-2)[Gal(b1-4)GlcNAc(b1-4)]Man(a1-3)[Gal(b1-4)GlcNAc(b1-2)[Gal(b1-4)GlcNAc(b1-6)]Man(a1-6)]Man(b1-4)GlcNAc(b1-4)GlcNAc
Outline: as §1

[17] = biological target: Gal(b1-4)GlcNAc(b1-3)Gal(b1-3)GlcNAc
Outline: as §1

[18] = biological target: Gal(b1-4)GlcNAc(b1-3)Gal(b1-4)Glc
Outline: as §1

[19] = biological target: Gal(b1-4)GlcNAc(b1-3)Gal(b1-4)GlcNAc
Outline: as §1

[20] = biological target: Gal(b1-4)GlcNAc(b1-3)Gal(b1-4)GlcNAc(b1-3)Gal(b1-4)GlcNAc
Outline: as §1

[21] = biological target: Gal(b1-4)GlcNAc(b1-3)Gal(b1-4)[Fuc(a1-3)]GlcNAc(b1-3)Gal(b1-4)[Fuc(a1-3)]GlcNAc
Outline: as §1

[22] = biological target: Gal(b1-4)GlcNAc(b1-3)GalNAc
Outline: as §1

[23] = biological target: Gal(b1-4)GlcNAc(b1-3)[Gal(b1-4)GlcNAc(b1-6)]Gal(b1-4)GlcNAc
Outline: as §1

[24] = biological target: Gal(b1-4)GlcNAc(b1-3)[Gal(b1-4)GlcNAc(b1-6)]GalNAc
Outline: as §1

[25] = biological target: Gal(b1-4)GlcNAc(b1-3)[GlcNAc(b1-6)]Gal(b1-4)GlcNAc
Outline: as §1

[26] = biological target: Gal(b1-4)GlcNAc(b1-6)Gal(b1-4)GlcNAc
Outline: as §1

[27] = biological target: Gal(b1-4)GlcNAc(b1-6)GalNAc
Outline: as §1

[28] = biological target: Gal(b1-4)GlcNAc(b1-6)[Gal(b1-3)]GalNAc
Outline: as §1

Gal3S(b1-3)GalNAc = biological target: Gal3S(b1-3)GalNAc
Outline: as §1

Gal3S(b1-3)GlcNAc = biological target: Gal3S(b1-3)GlcNAc
Outline: as §1

[29] = biological target: Gal3S(b1-3)[Fuc(a1-4)]GlcNAc
Outline: as §1

Gal3S(b1-4)Glc = biological target: Gal3S(b1-4)Glc
Outline: as §1

Gal3S(b1-4)Glc6S = biological target: Gal3S(b1-4)Glc6S
Outline: as §1

Gal3S(b1-4)GlcNAc = biological target: Gal3S(b1-4)GlcNAc
Outline: as §1

Gal3S(b1-4)GlcNAc6S = biological target: Gal3S(b1-4)GlcNAc6S
Outline: as §1

B1: ZG-16 (Homo sapiens), O60844 (protein)
chain: IQARSSSYSGEYGSGGGKRFSHSGNQLDGPITALRVRVNTYYIVGLQVRYGKVWSDYVGGRNGDLEEIFLHPGESVIQVSGKYKWYLKKLVFVTDKGRYLSFGKDSGTSFNAVPLHPNTVLRFISGRSGSLIDAIGLHWDVYPTSCSRCSRGSDDDDKAEPRGPTIKPCPPCKCPAPNLLGGPSVFIFPPKIKDVLMISLSPIVTCVVVDVSEDDPDVQISWFVNNVEVHTAQTQTHREDYNSTLRVVSALPIQHQDWMSGKEFKCKVNNKDLPAPIERTISKPKGSVRAPQVYVLPPPEEEMTKKQVTLTCMVTDFMPEDIYVEWTNNGKTELNYKNTEPVLDSDGSYFMYSKLRVEKKNWVERNSYSCSVVHEGLHNHHTTKSFSRTPGKRTYHHHHHHARKLTR
For B1, the “glycan array binding signal (z-score)” value [1] was -0.184, the “glycan array binding signal (z-score)” value [2] was -0.169 and the “glycan array binding signal (z-score)” value [3] was -0.126. The “glycan array binding signal (z-score)” value [4] was -0.173, the “glycan array binding signal (z-score)” value [5] was -0.232 and the “glycan array binding signal (z-score)” value (Gal(b1-4)Glc) was -0.208. The “glycan array binding signal (z-score)” value (Gal(b1-4)Glc6S) was -0.199, the “glycan array binding signal (z-score)” value (Gal(b1-4)GlcNAc) was -0.207 and the “glycan array binding signal (z-score)” value [6] was -0.191. The “glycan array binding signal (z-score)” value [7] was -0.114, the “glycan array binding signal (z-score)” value [8] was 0.105 and the “glycan array binding signal (z-score)” value [9] was -0.192. The “glycan array binding signal (z-score)” value [10] was -0.172, the “glycan array binding signal (z-score)” value [11] was -0.146 and the “glycan array binding signal (z-score)” value [12] was -0.199. The “glycan array binding signal (z-score)” value [13] was -0.117, the “glycan array binding signal (z-score)” value [14] was -0.126 and the “glycan array binding signal (z-score)” value [15] was -0.166. The “glycan array binding signal (z-score)” value [16] was -0.221, the “glycan array binding signal (z-score)” value [17] was 0.136 and the “glycan array binding signal (z-score)” value [18] was -0.14. For the same binder, the “glycan array binding signal (z-score)” value [19] was -0.144, the “glycan array binding signal (z-score)” value [20] was 0.095 and the “glycan array binding signal (z-score)” value [21] was -0.192. The “glycan array binding signal (z-score)” value [22] was -0.21, the “glycan array binding signal (z-score)” value [23] was -0.197 and the “glycan array binding signal (z-score)” value [24] was -0.184. For the same binder, the “glycan array binding signal (z-score)” value [25] was -0.131, the “glycan array binding signal (z-score)” value [26] was -0.189 and the “glycan array binding signal (z-score)” value [27] was -0.177. The “glycan array binding signal (z-score)” value [28] was -0.193, the “glycan array binding signal (z-score)” value (Gal3S(b1-3)GalNAc) was -0.111 and the “glycan array binding signal (z-score)” value (Gal3S(b1-3)GlcNAc) was 0.931. For the same binder, the “glycan array binding signal (z-score)” value [29] was -0.228, the “glycan array binding signal (z-score)” value (Gal3S(b1-4)Glc) was -0.203 and the “glycan array binding signal (z-score)” value (Gal3S(b1-4)Glc6S) was -0.172. For the same binder, the “glycan array binding signal (z-score)” value (Gal3S(b1-4)GlcNAc) was -0.113 and the “glycan array binding signal (z-score)” value (Gal3S(b1-4)GlcNAc6S) was -0.015.
